# The supplement of paper PMC8728848
# Some of the results follow.
# B1: SpnanA (Streptococcus pneumoniae), P62575 (protein)
# chain: MVIEKEDVETNASNGQRVDLSSELDKLKKLENATVHMEFKPDAKAPAFYNLFSVSSATKKDEYFTMAVYNNTATLEGRGSDGKQFYNNYNDAPLKVKPGQWNSVTFTVEKPTAELPKGRVRLYVNGVLSRTSLRSGNFIKDMPDVTHVQIGATKRANNTVWGSNLQIRNLTVYNRALTPEEVQKRS
# Experiments:
# Assay in all cases: glycan array binding signal (z-score within array); higher = stronger binding
# Conditions in all cases: glycan notation: IUPAC condensed, linker removed
# [1] = molecular target: GlcNAc(b1-2)[GlcNAc(b1-6)]Man(a1-6)[GlcNAc(b1-2)Man(a1-3)][GlcNAc(b1-4)]Man(b1-4)GlcNAc(b1-4)GlcNAc
# In short: (§1)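 Negative Z-scores can be read as non-binding. The Z-score is calculated within each array and then averaged across arrays of one protein sequence at different concentrations or buffers and across linkers. Arrays, 3228 in all, were curated from the Consortium for Functional Glycomics database and kept only where the protein sequence was available.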
# GlcNAc(b1-3)Gal = molecular target: GlcNAc(b1-3)Gal
# In short: as §1
# [2] = molecular target: GlcNAc(b1-3)Gal(b1-3)GalNAc
# In short: as §1
# GlcNAc(b1-3)Gal(b1-4)Glc = molecular target: GlcNAc(b1-3)Gal(b1-4)Glc
# In short: as §1
# [3] = molecular target: GlcNAc(b1-3)Gal(b1-4)GlcNAc
# In short: as §1
# [4] = molecular target: GlcNAc(b1-3)Gal(b1-4)GlcNAc(b1-3)Gal(b1-4)GlcNAc
# In short: as §1
# GlcNAc(b1-3)GalNAc = molecular target: GlcNAc(b1-3)GalNAc
# In short: as §1
# GlcNAc(b1-3)Man = molecular target: GlcNAc(b1-3)Man
# In short: as §1
# [5] = molecular target: GlcNAc(b1-3)[GlcNAc(b1-4)][GlcNAc(b1-6)]GlcNAc
# In short: as §1
# [6] = molecular target: GlcNAc(b1-3)[GlcNAc(b1-6)]Gal(b1-4)GlcNAc
# In short: as §1
# [7] = molecular target: GlcNAc(b1-3)[GlcNAc(b1-6)]GalNAc
# In short: as §1
# [8] = molecular target: GlcNAc(b1-4)Gal(b1-4)GlcNAc
# In short: as §1
# GlcNAc(b1-4)GlcNAc = molecular target: GlcNAc(b1-4)GlcNAc
# In short: as §1
# [9] = molecular target: GlcNAc(b1-4)GlcNAc(b1-4)GlcNAc
# In short: as §1
# [10] = molecular target: GlcNAc(b1-4)GlcNAc(b1-4)GlcNAc(b1-4)GlcNAc(b1-4)GlcNAc
# In short: as §1
# [11] = molecular target: GlcNAc(b1-4)GlcNAc(b1-4)GlcNAc(b1-4)GlcNAc(b1-4)GlcNAc(b1-4)GlcNAc
# In short: as §1
# [12] = molecular target: GlcNAc(b1-4)[GlcNAc(b1-6)]GalNAc
# In short: as §1
# [13] = molecular target: GlcNAc(b1-6)Gal(b1-4)GlcNAc
# In short: as §1
# GlcNAc(b1-6)GalNAc = molecular target: GlcNAc(b1-6)GalNAc
# In short: as §1
# GlcNAc3Prop(b1-4)GlcNAc = molecular target: GlcNAc3Prop(b1-4)GlcNAc
# In short: as §1
# [14] = molecular target: GlcNAc6S(b1-3)Gal(b1-4)GlcNAc
# In short: as §1
# Kdn(a2-3)Gal(b1-3)GalNAc = molecular target: Kdn(a2-3)Gal(b1-3)GalNAc
# In short: as §1
# Kdn(a2-3)Gal(b1-3)GlcNAc = molecular target: Kdn(a2-3)Gal(b1-3)GlcNAc
# In short: as §1
# Kdn(a2-3)Gal(b1-4)Glc = molecular target: Kdn(a2-3)Gal(b1-4)Glc
# In short: as §1
# Kdn(a2-3)Gal(b1-4)GlcNAc = molecular target: Kdn(a2-3)Gal(b1-4)GlcNAc
# In short: as §1
# [15] = molecular target: Kdn(a2-3)Gal(b1-4)[Fuc(a1-3)]GlcNAc
# In short: as §1
# Kdn(a2-6)Gal(b1-4)GlcNAc = molecular target: Kdn(a2-6)Gal(b1-4)GlcNAc
# In short: as §1
# [16] = molecular target: Man(a1-2)Man(a1-2)Man(a1-3)Man
# In short: as §1
# [17] = molecular target: Man(a1-2)Man(a1-2)Man(a1-6)[Man(a1-3)]Man
# In short: as §1
# Man(a1-2)Man(a1-3)Man = molecular target: Man(a1-2)Man(a1-3)Man
# In short: as §1
# [18] = molecular target: Man(a1-2)Man(a1-3)[Man(a1-2)Man(a1-6)]Man
# In short: as §1
# [19] = molecular target: Man(a1-2)Man(a1-3)[Man(a1-2)Man(a1-6)]Man(a1-6)[Man(a1-2)Man(a1-2)Man(a1-3)]Man
# In short: as §1
# [20] = molecular target: Man(a1-2)Man(a1-3)[Man(a1-2)Man(a1-6)]Man(a1-6)[Man(a1-2)Man(a1-2)Man(a1-3)]Man(b1-4)GlcNAc(b1-4)GlcNAc
# In short: as §1
# [21] = molecular target: Man(a1-2)Man(a1-3)[Man(a1-6)]Man(a1-6)[Man(a1-2)Man(a1-3)]Man(b1-4)GlcNAc(b1-4)GlcNAc
# In short: as §1
# [22] = molecular target: Man(a1-2)Man(a1-6)[Man(a1-3)]Man(a1-6)[Man(a1-2)Man(a1-2)Man(a1-3)]Man
# In short: as §1
# [23] = molecular target: Man(a1-2)Man(a1-6)[Man(a1-3)]Man(a1-6)[Man(a1-2)Man(a1-2)Man(a1-3)]Man(b1-4)GlcNAc(b1-4)GlcNAc
# In short: as §1
# Man(a1-3)[Man(a1-6)]Man = molecular target: Man(a1-3)[Man(a1-6)]Man
# In short: as §1
binder,measurement,setting,value
B1,glycan array binding signal (z-score),[1],-0.328
same,glycan array binding signal (z-score),GlcNAc(b1-3)Gal,-0.304
same,glycan array binding signal (z-score),[2],-0.164
same,glycan array binding signal (z-score),GlcNAc(b1-3)Gal(b1-4)Glc,-0.294
same,glycan array binding signal (z-score),[3],-0.22
same,glycan array binding signal (z-score),[4],-0.24
same,glycan array binding signal (z-score),GlcNAc(b1-3)GalNAc,-0.199
same,glycan array binding signal (z-score),GlcNAc(b1-3)Man,-0.158
same,glycan array binding signal (z-score),[5],-0.274
same,glycan array binding signal (z-score),[6],-0.211
same,glycan array binding signal (z-score),[7],-0.222
same,glycan array binding signal (z-score),[8],-0.275
same,glycan array binding signal (z-score),GlcNAc(b1-4)GlcNAc,-0.179
same,glycan array binding signal (z-score),[9],-0.223
same,glycan array binding signal (z-score),[10],-0.265
same,glycan array binding signal (z-score),[11],-0.247
same,glycan array binding signal (z-score),[12],-0.279
same,glycan array binding signal (z-score),[13],-0.263
same,glycan array binding signal (z-score),GlcNAc(b1-6)GalNAc,-0.295
same,glycan array binding signal (z-score),GlcNAc3Prop(b1-4)GlcNAc,-0.256
same,glycan array binding signal (z-score),[14],0.11
same,glycan array binding signal (z-score),Kdn(a2-3)Gal(b1-3)GalNAc,-0.266
same,glycan array binding signal (z-score),Kdn(a2-3)Gal(b1-3)GlcNAc,-0.261
same,glycan array binding signal (z-score),Kdn(a2-3)Gal(b1-4)Glc,-0.204
same,glycan array binding signal (z-score),Kdn(a2-3)Gal(b1-4)GlcNAc,-0.287
same,glycan array binding signal (z-score),[15],-0.23
same,glycan array binding signal (z-score),Kdn(a2-6)Gal(b1-4)GlcNAc,-0.273
same,glycan array binding signal (z-score),[16],-0.256
same,glycan array binding signal (z-score),[17],-0.182
same,glycan array binding signal (z-score),Man(a1-2)Man(a1-3)Man,-0.228
same,glycan array binding signal (z-score),[18],-0.273
same,glycan array binding signal (z-score),[19],-0.313
same,glycan array binding signal (z-score),[20],-0.239
same,glycan array binding signal (z-score),[21],-0.256
same,glycan array binding signal (z-score),[22],-0.27
same,glycan array binding signal (z-score),[23],-0.257
same,glycan array binding signal (z-score),Man(a1-3)[Man(a1-6)]Man,-0.248
